Experimental data published in ChEMBL document CHEMBL4888484, “Replenishing the malaria drug discovery pipeline: Screening and hit evaluation of the MMV Hit Generation Library 1 (HGL1) against asexual blood stage Plasmodium falciparum ,using a nano luciferase reporter read-out” (2022).
Out of some 150,000 compounds screened, about 540 (0.36%) showed an effect of 50% or more. This is one part of the list.

System: Plasmodium falciparum
Assay: Primary screen in NF54 nanoGlo assay, in single point, at 2uM, 72h; a lower Z score goes with more inhibition
Assay type: functional, Erythrocyte
Conditions: timepoint 72 hour

| Compound | % Inhibition [%] | Z score |
| --- | --- | --- |
| CC(C)C(NC(=O)c1ccccc1Cl)C(C)C | 6 | -0.88 |
| O=C1C[C@H]2CC[C@@H](CN1)N2C(=O)CCc1ccsc1 | -4 | 0.8 |
| CN(Cc1cnc(NCc2ccccc2)nc1)Cc1nccs1 | 16 | -2.95 |
| Cc1ccc(CN2CCC[C@H](OCc3noc(C)n3)C2)nc1 | -4 | 0.58 |
| COCc1nc(-c2ccc(OC3CN(Cc4ccc(C(F)(F)F)cc4)C3)cc2)no1 | -14 | 2.58 |
| CCN1CCN(c2cc([C@H]3CCOC3)nc(N3CC(O)C3)n2)CC1=O | -5 | 0.64 |
| CC(C)(C)c1n[nH]cc1C(=O)NCc1ccncc1Br | 15 | -1.95 |
| Cc1ncc(CN(C(C)C)C(C)C)s1 | -12 | 1.35 |
| O=C(N[C@H]1CCOC1)c1cn(CC2CCCCC2)nn1 | 2 | -0.48 |
| CC(C)Cn1cncc1CNc1ncc(Cl)cn1 | 0 | 0.06 |
| Cc1cc(=O)n2nc(N3CCN(C(=O)c4ccccc4)CC3)nc2[nH]1 | -5 | 0.92 |
| CCCn1ccc(NC(=O)NC(C)(C)C)n1 | -10 | 1.45 |
| Cc1nc(C)c(C)c(N[C@H]2CCC[C@H]2C(N)=O)n1 | -2 | 0.33 |
| COC[C@H]1CCCN(C(=O)c2occc2-c2ccc(F)cc2)C1 | 1 | -0.17 |
| Cc1cc2c(Cc3ccc(Br)cc3)n[nH]c(=O)c2c(=O)[nH]1 | -15 | 1.89 |
| O=C(NCc1ccncc1)C1Cc2cc(C(F)(F)F)ccc2N2CCN(c3ccccc3)CC12 (configuration not stated) | 2 | -0.19 |
| O=C1Nc2ccc(O)cc2O[C@H]1Cc1ccccc1Cl | 0 | -0.03 |
| O=C(Nc1ccc(Cl)cc1)N[C@H]1CCC12CCOCC2 | 17 | -2.21 |
| C[C@@H]1CN(Cc2cccc(C(=O)O)c2)CCN(CC(F)(F)F)C1 | -5 | 0.66 |

| Compound | % Inhibition [%] | Z score |
| --- | --- | --- |
| Cc1ccnn1-c1ccccc1NC(=O)Nc1ccn(CCC#N)n1 | -13 | 1.8 |
| O=C(c1cnc2ccccc2n1)N1CCC(C(=O)N2CCCCCC2)CC1 | -8 | 0.97 |
| CC[C@@H](C(=O)O)N(C)Cc1cc(Cl)ccc1F | -8 | 1.06 |
| O=C(O)c1cc(-c2c(-c3ccccc3)nn3ccccc23)n[nH]c1=O | -5 | 0.8 |
| O=C(N[C@@H](CC1CC1)C(=O)O)c1csc(C(F)(F)F)c1 | -7 | 1.41 |
| CC1(C)CC(NC(=O)COc2ccc(Cl)cc2)CC(C)(CNC(=O)COc2ccc(Cl)cc2)C1 (configuration not stated) | -9 | 1.66 |
| COc1ccccc1CNC(=O)CN1C(=O)[C@@H]2CCCCN2c2ccc(C(=O)N3CCCC3)cc21 | -2 | 0.17 |
| O=C(NCc1ccc(OCc2cccnc2)cc1)c1cc(Br)ccc1F | -6 | 1.23 |
| Cc1ccc(F)cc1CN(C)c1nncn1C | 12 | -1.11 |
| CC1=CC(C)(C)N=CN1c1cccc(C)c1 | -5 | 0.56 |
| Cc1nonc1N1CCN(c2cc([C@H]3CCOC3)ncn2)CC1 | -11 | 1.08 |
| CCC[C@@H](C#N)NC(=O)c1ccc2ncnn2c1 | -14 | 2.29 |
| CCN(CC)CC#CC1(OCCC#N)CCCCC1 | 2 | -0.25 |
| CC1(C)C(=O)NCCN1C(=O)C1=CCCCO1 | -5 | 0.5 |
| Cc1noc(C[C@H]2CCOC3(CCN(C(=O)CCCc4ccccc4)CC3)C2)n1 | -12 | 1.7 |
| Cc1cc(-c2c(N3CCCC3)cn[nH]c2=O)ccc1O | 8 | -1.05 |
| O=C(Cc1cccnc1)N1CC[C@H](c2cccc(C(F)(F)F)c2)C1 | -1 | 0.16 |
| CC(C)c1noc([C@@H]2CCCCN2Cc2ncccc2C(=O)O)n1 | 2 | -0.25 |
| Cc1nn(-c2ccc(C(=O)NC3CCCCC3)cc2)c2c1C(=O)CCC2 | -11 | 1.42 |

| Compound | % Inhibition [%] | Z score |
| --- | --- | --- |
| CNC(=O)CCOC(=O)c1cc(Cl)c(Cl)[nH]1 | -17 | 2.14 |
| CCOc1ccc(-c2cc3n(n2)CCCN(C(=O)NCCOC)C3)cc1 | 8 | -0.86 |
| CC1=C(C(=O)Nc2nnc3cc(C)ccn23)CCC1 | -6 | 1.04 |
| NC(=O)c1cnc2n1CCN(C(=O)c1ccc3[nH]c4c(c3c1)CCCC4)C2 | -8 | 0.7 |
| C[C@H](NC(=O)c1ccc[nH]1)C(C)(F)F | -1 | 0.11 |
| Cc1nc(NC(=O)Cn2nc(C)n(C)c2=O)sc1Cc1ccccc1 | 11 | -1.1 |
| CC1CN(C(=O)c2ccncc2F)CC(C)[S+]1[O-] (configuration not stated) | -5 | 0.97 |
| COc1cnc(NCc2cc3c(nc2OC)CN(C2CCCC2)C3=O)nc1 | -13 | 2.52 |
| CCCc1cc(C(=O)N2CCC[C@H](N)C2)sc1C | -15 | 1.8 |
| O=C(CC1CCCC1)Nc1cccc2ccccc12 | 33 | -3.78 |
| O=C(C1CCC1)N1CCCc2cc(S(=O)(=O)Nc3ccccc3)ccc21 | -8 | 1.44 |
| C[C@@H](C(=O)Nc1ccc(F)cc1)n1nc(-c2ccccc2)c2cc(Cl)ccc21 | -4 | 0.78 |
| COc1cc(OC)nc(N(C)[C@H]2C[C@@H](OC)C2)n1 | -10 | 1.02 |
| COc1ccc(C(=O)NC[C@H](O)c2ccc3c(c2)CCN3C)c(OC)c1OC | -12 | 1.54 |
| CCOc1ccccc1CNc1cccc2c1CCNC2=O | 0 | 0 |
| Cc1cc2ccccc2n1CC(=O)Nc1cccc(N2C(=O)CN(C)C2=O)c1 | -4 | 0.75 |
| COc1ccc2c(N)n(C(=O)c3cc(C)no3)nc2c1 | -7 | 1.06 |
| COc1cc(NC(=O)[C@@H]2CC(=O)N(C)c3ccccc32)cc(-n2cnnn2)c1 | -9 | 1.59 |
